Laboratory results published in PubChem BioAssay AID662 (National Center for Advancing Translational Sciences (NCATS), 2007).
The campaign covered roughly 71,000 compounds. About 1,800 (2.5%) were called active. The inconclusive results got no clear call from the source; some entries with a clear call stand among them for comparison. The call rests on the fitted dose curve; in most records, active means well fitted activation curve with a large enough effect in the signal ratio, with a control signal flat (not every such curve was filed as active); inconclusive means small, poorly fitted or top-dose-only effect, or effect the other way, or a change in a side signal; inactive means flat fitted curve, though single readings scatter; the % refers to the signal ratio. Potencies of inconclusive entries are doubtful fits and often do not repeat.

Test: Cell signaling CRE-BLA (Fsk stim); on activity change, negative = inhibition: % of control where 0% means no effect
Conditions: CHO CRE-bla reporter (cAMP response element driving beta-lactamase), forskolin EC10, beta-lactamase ratio; activity change, negative = inhibition: at 38.2 µM (top of the series) unless noted
Method in brief: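 CRE-bla CHO cells stimulated with EC10 NKH 477 (water-soluble forskolin) and compound titrations, 3 h at 37C; beta-lactamase read with CCF4 after 2 h at room temperature. Activity from 460/530 nm emission ratio, AC50 values for positive or negative modulation.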
Potency means the concentration at half of the fitted maximal effect; tags describe the fitted curve by direction and shape.

| Compound | activity change, negative = inhibition | Potency |
| --- | --- | --- |
| COc1cc2c(=O)n(CC3CCCO3)c(=O)n(CC(=O)Nc3cccc(Cl)c3)c2cc1OC (stereo not given) | inconclusive: 27.2% |  |
| COc1ccc(C2=NOC(C(=O)N3CCCCCC3)C2)cc1OC (stereo not given) | inconclusive: 20.2% |  |
| Cc1ccsc1C(=O)OC1CCOC1=O (stereo not given) |  | inconclusive: 3.98 µM [falling, single point] |
| S=c1[nH]nc(CSc2nc3ccccc3s2)o1 | inconclusive: -18.7% |  |
| Cc1nn2c(N3CCN(C(=O)c4ccco4)CC3)cc(C(C)(C)C)nc2c1-c1ccccc1 | inactive |  |
| CCC[C@@H]1C[C@@]1(CCC)C(NC(=O)OCc1ccccc1)c1ccc(-c2ccccc2)cc1 (stereo not given in full) | inactive |  |
| CC1=C(C(=O)Nc2ccccn2)C(c2ccc(Br)cc2)n2ncnc2N1 (stereo not given) | inconclusive: -3.46% |  |
| Cn1c(=O)c2cn(-c3ccc4c(c3)OCCO4)cc2n(C)c1=O | inconclusive: 18.6% |  |
| Cn1c(C(O)c2ccc3c(c2)OCO3)nc2ccccc21 (stereo not given) | inconclusive: 3.78% |  |
| Nc1nc2n(n1)C1(CCCCC1)C1=C(CCCC1)N2 | inconclusive: 23.7% [at 7.6 µM] |  |
| Cc1c2ccccc2c(CSC(=N)N)c2ccccc12 | inconclusive: 18.6% [at 7.6 µM] |  |
| CCOC(=O)c1ccc(NC(=O)CCc2nc(-c3ccc(C)cc3)no2)cc1 | inconclusive: -19.8% |  |
| COc1cc2nc(CN(C)CC(=O)Nc3ccc(N4CCOCC4)cc3)[nH]c(=O)c2cc1OC |  | inconclusive: 10 µM [rising, single point] |
| N#CC1=C2C=Cc3ccccc3N2CCCC1=O | inconclusive: 26.2% |  |
| COC(=O)c1ccccc1NC(=O)Cn1c(-c2nonc2N)nc2ccccc21 |  | inconclusive: 2 µM [rising, partial curve] |
| CCN(CCCNC(=O)CCn1c(=O)[nH]c2ccccc2c1=O)c1ccccc1 |  | inconclusive: 0.251 µM [falling, full curve, poor fit] |
| COc1c(O)ccc2c1CN1CCc3cc4c(cc3[C@@H]1C2)OCO4 | inactive: 23.7% [at 7.6 µM] |  |
| COc1ccc(C(=O)NCCn2cc(SCC(=O)Nc3nnc(C)s3)c3ccccc32)cc1 | inactive |  |
| CCOC(=O)c1ccc(Oc2c(C)oc3c(CN4CCN(C)CC4)c(O)ccc3c2=O)cc1 | inactive |  |
| CCOC(=O)c1[nH]c2ccc(OC)cc2c1NS(=O)(=O)c1ccc(OC)cc1OC |  | inconclusive: 0.01 µM [rising, full curve, poor fit] |
| CCOC(=O)c1c(C)[nH]c(C(=O)Cn2nnc(-c3ccc(Cl)cc3)n2)c1C | inactive |  |
| O=S1(=O)CCN2C(=N1)Sc1c2ccc2c1CCCC2 |  | inconclusive: 12.6 µM [rising, single point] |
| CCOC(=O)c1cc2c(C(F)(F)F)cc(-c3cccnc3)nc2o1 | inconclusive: 1.44% |  |
| CCOC(=O)Nc1ccc2c(c1)N(C(=O)N1CCN(C)CC1)c1ccccc1S2 | inactive |  |
| CSc1nc(-c2ccco2)nn1C(=O)c1cccs1 | inconclusive: -17.1% |  |
| C[C@H](CCC(=O)O)[C@H]1CC[C@H]2[C@@H]3CC[C@@H]4C[C@H](O)CC[C@]4(C)[C@H]3CC[C@]12C |  | inconclusive: 3.98 µM [rising, full curve, poor fit] |
| Oc1ccc(N2CCN(C(c3cccnc3)c3nnnn3Cc3ccccc3)CC2)cc1 (stereo not given) | inconclusive: -5.5% |  |

| Compound | activity change, negative = inhibition | Potency |
| --- | --- | --- |
| COc1ccc(NC(=O)c2ccc3c(c2)OCO3)cc1Cl | inconclusive: -0.608% |  |
| O=C(C1Cc2ccccc2O1)N1CCCCC1 (stereo not given) | inconclusive: 1.12% [at 7.6 µM] |  |
| CCOC(=O)c1ccc(NC(=O)CCc2c(C)nc3ncnn3c2C)cc1 | inconclusive: 28.5% |  |
| COc1ccc(-c2noc(-c3ccccc3C(=O)NCc3ccco3)n2)cc1 | inactive |  |
| COC(=O)c1ccccc1NC(=O)c1cc2sccc2n1C | inactive |  |
| CC(C)COC(=O)Nc1ccccc1C(=O)N1CCOCC1 | inconclusive: 25.7% |  |
| CCCN1C(=O)c2ccc(C(=O)NC3=NCCS3)cc2C1=O | inconclusive: 51.8% |  |
| Cc1nn(-c2ccccc2)c(C)c1NC(=O)c1ccc(S(=O)(=O)N2CCCC2)cc1 | inconclusive: -12.8% |  |
| Cc1ccccc1NS(=O)(=O)c1cc(C(N)=O)ccc1C | inactive |  |
| CC[C@H]1C2=C3C(CC[C@H]4C(OCc5ccc(F)cc5C(F)(F)F)OC[C@](C)([C@@H]34)N(C(=O)OC(C)(C)C)C2)C(COC)C1COC (stereo not given in full) | inactive |  |
| COc1cccc(Nc2nc(-c3sc(N)nc3C)cs2)c1 | inconclusive: -27.8% |  |
| COc1nc2ccccc2cc1-c1noc(-c2cccnc2)n1 | inconclusive: 14.4% |  |
| O=C(O)CN1CCOCCOCCN(CC(=O)O)CCOCCOCC1 | inactive |  |
| N#CC1(c2c(O)nc3n(c2=O)CCCS3)CCCCC1 | inconclusive: -5.12% |  |
| CCOC(=O)c1nnn(-c2nonc2N)c1CSc1ccccn1 |  | inconclusive: 15.8 µM [rising, partial curve] |
| CCOC(=O)C1CCCN(Cc2cc(Br)ccc2OC)C1 (stereo not given) | inconclusive: -6.88% [at 7.6 µM] |  |
| Cc1ccc(C(=O)NCc2ccc3c(c2)OCO3)cc1S(=O)(=O)N1CCOCC1 | inactive |  |
| COc1ccc(NC(=O)CSc2nnc(-c3cccs3)n2-c2ccccc2)cc1 | inconclusive: 8.14% |  |
| COc1ccc(OC)c(NC(=O)CN(c2ccc(C(C)C)cc2)S(=O)(=O)c2c(C)noc2C)c1 |  | inconclusive: 7.94 µM [rising, partial curve] |
| COc1cccc(-n2c(COc3ccccc3C)nnc2SCC(=O)O)c1 | inconclusive: 1.14% |  |
| CCOC(=O)C1=C(c2ccccc2)Nc2ncnn2C1c1cc(OC)cc(OC)c1OC (stereo not given) | inconclusive: 4.69% |  |
| CCC(C)c1ccc(NC(=O)c2cccnc2)cc1 (stereo not given) | inconclusive: -12.8% [at 7.6 µM] |  |
| CC1=C(C(=O)OCC2CCCO2)C(c2ccccc2)NC(=O)N1 (stereo not given) | inconclusive: -4.42% [at 7.6 µM] |  |
| Nc1ccc(-c2nc3ccc(-c4nc5ccccc5o4)cc3[nH]2)cc1 |  | active: 12.6 µM |
| OC(COc1ccc2cc(Br)ccc2c1)CN1CCCC1 (stereo not given) | inactive |  |
| CC(C)CC1(C)NC(=O)N(CCN2C(=O)c3ccccc3C2=O)C1=O (stereo not given) | inconclusive: 3.66% |  |
| O=C(Nc1ccc2oc(-c3ccncc3)nc2c1)c1cccs1 |  | inconclusive: 12.6 µM [rising, single point] |

| Compound | activity change, negative = inhibition | Potency |
| --- | --- | --- |
| Cc1ccc2c(c1)C1CCCC3C1N2CC(=O)N3Cc1ccccc1 (stereo not given) | inactive |  |
| COCCn1c(=O)c(C)nc2cnc(N(C)C)nc21 |  | inconclusive: 12.6 µM [rising, partial curve] |
| COc1ccc(S(=O)(=O)N2CCCN(CC(=O)Nc3ccc(OC)c(Cl)c3)CC2)cc1 | inconclusive: -5.91% |  |
| Cc1ccc2sc(NC(=O)CN3C(=O)CCC3=O)nc2c1C | inactive |  |
| COC(=O)C1=C(C)NC(C)=C(C(=O)OC(C)C)C1c1cccc2nonc12 (stereo not given) | inconclusive: -11.5% |  |
| O=C(OCC(=O)N1CCOCC1)c1ccc2c(c1)OCCO2 |  | inconclusive: 3.16 µM [falling, single point] |
| COc1cccc(C2=NOC(C(=O)NC3CCCCC3)C2)c1 (stereo not given) | inactive |  |
| CC[C@@]12CCCN3CCc4c(n(c5ccccc45)[C@](O)(C(=O)OC)C1)[C@H]32 |  | inconclusive: 1.58 µM [falling, full curve, poor fit] |
| COC(=O)c1ccc(CN2CCN(Cc3ccc(C(=O)OC)o3)CC2)o1 | inconclusive: 1.6% |  |
| Cc1ccc2cc(-c3noc(C4CCCO4)n3)c(=O)[nH]c2c1 (stereo not given) | inactive |  |
| Cc1cc(NC(=O)Nc2cc(C)nn2-c2ccccc2)n(-c2ccccc2)n1 |  | inconclusive: 5.01 µM [rising, single point] |
| c1ccc(-c2nnc(CSc3nc4ccccc4[nH]3)o2)cc1 | inconclusive: 26.8% |  |
| COc1ccc(C(=O)Nc2cccc(N(C)S(C)(=O)=O)c2)cc1OC | inactive |  |
| COC(=O)c1[nH]c2cccc(OC)c2c1NC(=O)CCN1CC(C)CC(C)C1 (stereo not given) | inactive |  |
| CCCc1cc(N2CCCC(C(=O)Nc3ccc(OC)cc3OC)C2)n2ncnc2n1 (stereo not given) |  | inconclusive: 10 µM [rising, single point] |
| O=C(c1nc2nc(-c3ccc(Cl)cc3)cc(C(F)(F)F)n2n1)N1CCOCC1 |  | inconclusive: 12.6 µM [rising, partial curve] |
| COc1cc(OC)c(C(=O)CCCCN2CCC3(CC2)NC(=O)NC3=O)cc1NS(=O)(=O)c1ccc(C(F)(F)F)cc1 | inconclusive: -15.7% |  |
| Cc1c(NC(=O)c2cc(-c3ccco3)on2)c(=O)n(-c2ccccc2)n1C | inactive |  |
| c1ccc(-c2oc3ncnc(N4CCOCC4)c3c2-c2ccccc2)cc1 | inactive |  |
| O=C(COc1ccccc1)N1CCN(C(=O)Cc2ccccc2)CC1 |  | inconclusive: 0.02 µM [rising, partial curve] |
| COC(=O)c1cc(=O)nc2sc3ccccc3n12 |  | inconclusive: 12.6 µM [rising, single point] |
| Cn1cc(-c2nc3cnc(N4CCNCC4)nc3n(C)c2=O)c2ccccc21 |  | inconclusive: 2.51 µM [rising, full curve] |
| COc1ccc2cc3cc(C(=O)Nc4ccc5c(c4)OCO5)oc3nc2c1 |  | inconclusive: 0.0398 µM [rising, full curve] |
| Cc1cccc2cc(C#N)c(SCC(=O)N3CC(=O)Nc4ccccc43)nc12 |  | inconclusive: 2 µM [rising, full curve] |
| N#Cc1ccc(N2CCN(C(=O)c3cccc(F)c3)CC2)c(F)c1 | inactive |  |
| Cc1ccc(CNC(=O)C2C3C=CC4(CN(Cc5cccnc5)C(=O)C24)O3)cc1 (stereo not given) |  | inconclusive: 25.1 µM [rising, single point] |
